Laboratory results: PubChem BioAssay AID1159614 (National Center for Advancing Translational Sciences (NCATS), 2016)
In all, about 45,000 compounds went through this assay and about 65 (0.1%) were called active. Calls follow the shape of the dose curve; as a rule, active = well fitted activation curve with a large enough effect; inconclusive = small, poorly fitted or top-dose-only effect; inactive = no such curve, though single readings can be large or run the other way. This is one part of the list.

biological target: Galactocerebrosidase (Homo sapiens) (UniProt P54803); experiment: A Novel Cell-Based Assay to Identify Small Molecules for B -Galactocerebrosidase; settings: 145M-Twi-hGALC-G270D cells (Twitcher mouse brain line with human GALC G270D), HMU-beta-Gal fluorescence, 48 h; series mostly up to 57.5 µM; activation: at the top concentration; also: 0% is about no effect; nearly all actives have a fitted effect of over 65% in size
Method in brief: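 Live 145M-Twi cells (Twitcher mouse brain-derived, GALC-null) stably expressing human GALC-G270D, with a wild-type GALC line, were compound-treated. Residual GALC activity was then read as fluorescence from 0.1 mM final HMU-β-gal at pH 5.2; higher signal means activation.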

Sequence of UniProt P54803 (P54803 whole entry, looked up): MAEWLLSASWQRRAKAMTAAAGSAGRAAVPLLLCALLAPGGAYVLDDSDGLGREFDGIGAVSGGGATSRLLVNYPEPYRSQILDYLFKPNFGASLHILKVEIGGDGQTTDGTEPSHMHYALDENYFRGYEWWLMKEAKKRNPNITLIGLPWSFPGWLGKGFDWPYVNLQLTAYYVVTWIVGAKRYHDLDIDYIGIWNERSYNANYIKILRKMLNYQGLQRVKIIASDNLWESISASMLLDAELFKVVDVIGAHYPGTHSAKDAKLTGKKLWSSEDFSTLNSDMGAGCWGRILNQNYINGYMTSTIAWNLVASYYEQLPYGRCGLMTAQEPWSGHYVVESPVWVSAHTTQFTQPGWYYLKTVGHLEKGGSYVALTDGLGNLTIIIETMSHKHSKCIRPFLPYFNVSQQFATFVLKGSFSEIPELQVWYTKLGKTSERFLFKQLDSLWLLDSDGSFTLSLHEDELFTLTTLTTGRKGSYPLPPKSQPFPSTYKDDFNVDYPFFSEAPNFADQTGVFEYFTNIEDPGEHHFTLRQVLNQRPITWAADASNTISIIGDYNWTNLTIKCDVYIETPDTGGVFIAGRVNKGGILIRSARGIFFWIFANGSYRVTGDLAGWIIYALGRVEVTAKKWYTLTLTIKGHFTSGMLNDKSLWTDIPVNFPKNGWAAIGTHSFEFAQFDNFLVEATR

Structure (SMILES) | activation
O=C(Nc1cc(-c2nc3cc(Cl)ccc3o2)ccc1Cl)c1cccc2ccccc12 | inactive: -12%
COc1ccc(CCNC(=O)c2c[nH]n3c(=O)c(Cc4ccccc4Cl)c(C)nc23)cc1OC | inactive: -13.3%
O=S(=O)(Nc1ccc(F)cc1F)c1ccc(Br)s1 | inactive: -9.73%
CC(=O)c1cccc(NC(=O)Cn2c(=O)oc3cc(S(=O)(=O)NCc4ccccc4)ccc32)c1 | inactive: -24.8%
COc1ccc(OCc2ccc(-c3nc(C#N)c(N4CCC(C(N)=O)CC4)o3)o2)cc1 | inactive: -13%
Cc1ccc(CNC(=O)c2nnn(Cc3ccc(F)cc3)c2N)cc1 | inactive: -17%
COCCNC(=O)CCSc1nc(-c2ccc3c(c2)OCO3)cc(C(F)(F)F)n1 | inactive: -10.1%
CCc1nnc2c(NCc3cccc(OC)c3)nc3ccccc3n12 | inactive: -5.27%
COc1ccccc1N1CCN(c2cc(C)nc3c(-c4ccc(Cl)cc4)c(C)nn23)CC1 | inactive: 2.23%
COCCOC(=O)C1=C(C)N=C2SCCC(=O)N2C1c1ccc(OCc2ccccc2)c(OC)c1 (stereo not given) | inactive: -10.4%
COCCCNc1nc2c(c(=O)n(C)c(=O)n2C)n1Cc1ccccc1 | inactive: -18.5%
COc1cccc(-c2[nH]c3c(c2-c2c(-n4cccc4)n(C)c(=O)[nH]c2=O)c(=O)[nH]c(=O)n3C)c1 | inactive: -16.4%
CN(C)c1ccc(CNC(=O)CCn2c(=O)c3cccn3c3ccc(F)cc32)cc1 | inactive: -14.5%
Cc1ccc(NS(=O)(=O)c2ccc3c(c2)NC(=O)CCS3)cc1F | inactive: -40.8%
Cn1c(=O)c2c(ncn2C)n(C)c1=O | inactive: -11.5%
Cc1cn(C)c(CC(=O)N2CCN(c3ccc(F)cc3)CC2)c1C(=O)O | inactive: -5.79%
O=C(NCc1ccc2c(c1)CCN2C(=O)c1ccccc1)c1ccc(Br)o1 | inactive: -2.35%
CCOc1ccccc1C(=O)Nc1nnc(COC)s1 | inactive: -14%
CCN(CC)S(=O)(=O)c1ccc2c(c1)c(=O)c(C(=O)NCc1ccccc1OC)cn2C | inactive: -18.2%
Cc1ccc(C(=O)N2CCc3cc(CNC(=O)c4ccnn4C)ccc32)cc1 | inactive: -11.8%
CCOc1ccc(C(=O)N2CCC(c3ccncc3)CC2)cc1 | inactive: -5.21%
CCN(C(=O)Cn1cc(C(=O)c2ccc(F)cc2)c(=O)c2ccc(C)nc21)c1cccc(C)c1 | inactive: -14.8%
COc1cc(NC(=O)Cn2c(=O)nc(-c3ccccc3F)c3cc(Cl)ccc32)cc(OC)c1 | inactive: -12.8%
CCOC(=O)c1cc(OC(=O)c2cccc(Cl)c2)n(-c2ccccc2)n1 | inactive: -18.7%

Structure (SMILES) | activation
Cc1ccc(C)c(N2CCN(C(=O)Cn3c(C)c4cnn(-c5ccccc5)c(=O)c4c3C)CC2)c1 | inactive: -1.75%
CC1CCCCN1c1nc(-c2ccc(C(C)(C)C)cc2)nc2ccccc12 (stereo not given) | inactive: -12.6%
COC(=O)c1ccccc1NC(=O)Cn1nc(C(F)(F)F)c2c1CCCC2 | inactive: -2.91%
Cc1ccc2c(c1)CC(C)N2S(=O)(=O)c1nnc(NC(=O)CC(C)C)s1 (stereo not given) | inactive: -1.54%
Cc1cc(C)c2c(CC(=O)Nc3c(C(=O)c4ccc(F)cc4)oc4ccccc34)coc2c1 | inactive: -18.8%
CC(C)c1ccc2occ(CC(=O)Nc3cccc(C(F)(F)F)c3)c2c1 | inactive: -24.1%
COc1ccc(OC)c(NC(=O)CCc2c(C)nc3c(c(C)nn3C(C)(C)C)c2C)c1 | inactive: -11.7%
CC(C)c1nc2ccc(C(=O)NCCCN3CCN(c4ccc(F)cc4)CC3)cc2o1 | inactive: -5.95%
CCC1CN(C(=O)N2CCC(C(=O)NCc3ccco3)CC2)c2cc(C)ccc2O1 (stereo not given) | inactive: -9.64%
COc1cccc(-n2c(-c3ccc(C)cc3)cc3c2CC(C)(C)CC3=O)c1 | inactive: -24.1%
Cc1cc(=O)n(Cc2ccccc2Cl)c2c1c(C)nn2-c1ccccc1 | inactive: -6.4%
Cc1cc(NC(=O)CSc2nc3c([nH]c4ccccc43)c(=O)n2-c2ccc(Cl)cc2)no1 | inactive: -24.3%
O=C(NCC1CCN(Cc2ccccc2Cl)CC1)c1cc2ccc3cccnc3c2[nH]1 | inactive: -8.91%
Cc1c(NC(=O)c2ccc(Cl)cc2)cc(C(C)C)c(O)c1S(=O)(=O)c1ccccc1 | inactive: -6.55%
COc1ccccc1C(=O)Nc1ccc(OCc2cc(=O)n3cccc(C)c3n2)cc1 | inactive: -11.7%
CCc1ccc(NC(=O)c2ccc3c(O)c(S(=O)(=O)c4ccccc4)c(=O)[nH]c3c2)cc1 | inactive: -21.5%
CCOc1ccc(NC(=O)c2oc(=O)c3ccccc3c2-c2ccc(C)cc2)cc1 | inactive: -12.3%
CCN1CCN(C(=O)c2ccc3c(c2)N(Cc2ccc(F)cc2)C(=O)c2ccccc2S3(=O)=O)CC1 | inactive: -6.35%
Cc1cccc(OCc2nnc(-c3ccccc3)o2)c1 | inactive: -18.5%
CCn1c2c(c(=O)n3ncc(C(=O)Nc4ccc(F)cc4Cl)c13)CN(Cc1ccc(OC)cc1)CC2 | inactive: -18.4%
COc1ccc(CC(=O)Nc2nnc3n2CCS3)cc1 | inactive: -20.4%
O=C(CC1Oc2ccccc2NC1=O)NCc1ccc(F)cc1 (stereo not given) | inactive: -6.75%
Cc1ccc(CSc2nc3ccsc3c(=O)n2CCC(C)C)cc1 | inactive: -2.24%
O=c1oc2ccc(F)cc2cc1-c1nc(-c2cccs2)no1 | inactive: -1.08%

Structure (SMILES) | activation
CCOc1ccc(-n2c(Cc3ccccc3)nnc2SCc2nc(-c3cccs3)no2)cc1 | inactive: -5.88%
Cc1ccc(-c2nc(-c3cc4cccc(OCc5cccc(F)c5)c4oc3=O)no2)cc1 | inactive: -14.1%
COc1cccc(NC(=O)c2sc3nc(C)c(C(=O)Nc4ccc(C)cc4C)c(-c4cccs4)c3c2N)c1 | inactive: -22.3%
Cc1ccc2scc(N3CCN(c4cccc(C(F)(F)F)c4)CC3)c(=O)c2c1 | inactive: -16%
COC(=O)CN1C(=O)C(C)(C)c2cc(S(=O)(=O)NCc3ccc(Cl)cc3)ccc21 | inactive: -13.5%
CCCCN(CCCC)C1=C(C(=O)c2ccccc2)N(CC)S(=O)(=O)c2ccccc21 | inactive: -37.6%
Cc1cc(C)cc(NC(=O)C2CCN(S(=O)(=O)c3c(C)noc3/C=C/c3ccco3)CC2)c1 | inactive: -11%
Cc1ccn2c(Nc3c(C)cccc3C)c(-c3ccc(Cl)s3)nc2c1 | inactive: -13.8%
COc1cc(CN(C(=O)COc2ccccc2Cl)c2ccccn2)cc(OC)c1OC | inactive: -33.3%
CCn1c(C)c(C)c2cc(C(=O)N3CCN(c4cccc(C)c4C)CC3)ccc21 | inactive: -9.8%
COc1cccc(-n2c(-c3ccco3)nc3c(cnn3-c3ccc(Cl)cc3)c2=O)c1 | inactive: -5.67%
COc1cccc(N2C(=O)CSC23C(=O)N(CC(=O)Nc2cccc(Cl)c2)c2ccccc23)c1 (stereo not given) | inactive: -18.3%
O=C(CSc1cn(CCNC(=O)c2ccccc2F)c2ccccc12)Nc1ccc(F)cc1 | inactive: -10.2%
COc1ccc(C)cc1NC(=O)CSc1nc(=O)[nH]c2c1CCCC2 | inactive: -23.8%
CCC(CC)C(=O)N1CCc2cc(OC)c(OC)cc2C1COc1ccc(C(=O)OC)cc1 (stereo not given) | inactive: -21.9%
COc1ccc(CC(=O)Nc2cc(-c3nc4cccnc4s3)ccc2C)cc1 | inactive: -3.46%
CN(C)S(=O)(=O)N(CC(=O)NCCSCc1cccc(Cl)c1)c1ccccc1 | inactive: -14.5%
CCOC(=O)c1ccc(N2C(=O)c3n[nH]c(-c4cccs4)c3C2c2cccc(OC)c2)cc1 (stereo not given) | inactive: -4.46%
O=S(=O)(c1ccc(Cl)cc1)c1nnn2c1nc(NCc1cccs1)c1sccc12 | inactive: -8.06%
CCOc1ccc(-n2c(=O)c3c4c(sc3n(CC(=O)NC(C)CC)c2=O)CCC4)cc1 (stereo not given) | inactive: -16.8%
CCC(=O)Nc1ccc2nc(SCc3ccccc3)sc2c1 | inactive: -24.8%
CCc1ccc2oc(-c3cccc(NC(=O)C(C)(C)Oc4ccc(Br)cc4)c3)nc2c1 | inactive: -5.18%
Cc1ccc(S(=O)(=O)c2nc(-c3ccc(F)cc3)oc2SCC(=O)c2ccccc2)cc1 | inactive: -28.9%
Cc1ccc(Nc2c(-c3ccc(C)cc3)nc3ccc(C)cn23)cc1 | inactive: -6.5%

Structure (SMILES) | activation
Cc1cc(C)cc(Nc2ncnc3onc(-c4ccc(F)cc4)c23)c1 | inactive: -9.12%
CCS(=O)(=O)c1nc(S(=O)(=O)c2ccc(C)cc2)c(NC(C)c2ccccc2)s1 (stereo not given) | inactive: -13.9%
COc1ccc(-c2nnc(Nc3ccc(OC)c(C(N)=O)c3)c3ccccc23)cc1 | inactive: -19.8%
CCOc1ccccc1NC(=O)C(=O)c1cc(C)n(-c2ccc(F)cc2)c1C | inactive: -15.9%
CCOc1ccc(-n2cc(-c3ccccc3)c3c(N4CCC(C)CC4)ncnc32)cc1 | inactive: -1.02%
O=C(CCSCc1cccc(F)c1)NCc1ccccc1 | inactive: -14.7%
COc1ccc(Cl)cc1NC(=O)Cn1c(=O)n(CCCC(=O)NCCc2ccc(OC)c(OC)c2)c(=O)c2ccccc21 | inactive: -5.67%
O=C(c1ccc2c(c1)CCCC2)N1CCN(c2nc3ccc(F)cc3s2)CC1 | inactive: -13.6%
CCCOc1ccc(CNC(=O)Cn2cc3c(n2)-c2c(oc(C(=O)N4CCOCC4)c2C)CC3)cc1 | inactive: -9.27%
CCc1ccc(S(=O)(=O)NCc2nc3cccnc3n2Cc2ccccc2Cl)cc1 | inactive: -8.1%
COc1cccc(-n2c(SCC(=O)N3CCCc4ccccc43)nc3c([nH]c4ccccc43)c2=O)c1 | inactive: -12%
COc1cc(NC(=O)NC(C)c2c(-n3cccc3)sc3c2CCN(C)C3)cc(OC)c1 (stereo not given) | inactive: 3.66%
COc1ccc(S(=O)(=O)c2cc3cc(OC)ccc3oc2=O)cc1 | inactive: -4.88%
Cc1ccc(NC(=O)Cn2c(=O)n(CCCS(=O)(=O)C3CCCCC3)c(=O)c3ccccc32)cc1F | inactive: -5.12%
CC(NC(=O)c1ccc(Cn2c(=O)c3cccn3c3cccnc32)cc1)c1ccccc1 (stereo not given) | inactive: -11.9%
CCN1CCN(c2c(S(=O)(=O)c3ccc(Cl)cc3)cnc3ccccc23)CC1 | inactive: -7.28%
COc1ccc(C(=O)c2oc3ccccc3c2NC(=O)COc2ccc(C)cc2)cc1 | inactive: -11.9%
Cc1ccc(C)c(Nc2nc3c(S(=O)(=O)c4ccc(Br)cc4)nnn3c3ccsc23)c1 | inactive: -7.17%
CCc1ccccc1NC(=O)N1CCc2cc(OC)c(OC)cc2C1CC(=O)OC (stereo not given) | inactive: -18.7%
COc1cc(C2c3c(-c4c(C)cc(C)cc4O)n[nH]c3C(=O)N2CCCOC(C)C)cc(OC)c1OC (stereo not given) | inactive: -0.67%
CCN1CCN(c2cc(-c3ccc(F)cc3)c3c(n2)CCCCCC3)CC1 | inactive: -6.54% [at 23.8 µM]
CCc1ccccc1NC(=O)CN1C(=O)COc2ccc(S(=O)(=O)Nc3ccccc3)cc21 | inactive: -11.4%
CCC1CN(S(=O)(=O)c2ccc3c(c2)NC(=O)CC(=O)N3)c2cc(Cl)ccc2O1 (stereo not given) | inactive: -16.6%
